Experimental data published in PubChem BioAssay AID1768 (National Center for Advancing Translational Sciences (NCATS), 2009).
In all, about 270,000 compounds went through this assay and about 620 (0.23%) were called active. The inconclusive results got no clear call from the source; some entries with a clear call stand among them for comparison. Calls follow the shape of the dose curve; as a rule, active = well fitted inhibition curve with a large enough effect in the polarisation, with a control signal flat (not every such curve was filed as active); inconclusive = small, poorly fitted or top-dose-only effect, or effect the other way, or a change in a side signal; inactive = no such curve, though single readings can be large or run the other way; the % refers to the polarisation. Where the call is inconclusive, the potency comes from a doubtful curve fit. A note “side channel” means that the fit belongs to a control or component signal, not to the main read-out.

Each molecule was assayed against Menin (Homo sapiens) (UniProt O00255) (assay: qHTS Assay for Inhibitors Targeting the Menin-MLL Interaction in MLL Related Leukemias: Competition With Texas Red Labeled MLL-derived Mutant Peptide). Settings: fluorescence polarization; FP activity change, negative = inhibition: at 61.6 µM (top of the series).
For FP activity change, negative = inhibition in this document: % of control where 0% means no effect.
Potency is read from the fitted curve at half-maximal effect; tags tell the direction and shape of the fitted curve or compound fluorescence and quenching.

Chain of UniProt O00255 (O00255 whole entry, looked up): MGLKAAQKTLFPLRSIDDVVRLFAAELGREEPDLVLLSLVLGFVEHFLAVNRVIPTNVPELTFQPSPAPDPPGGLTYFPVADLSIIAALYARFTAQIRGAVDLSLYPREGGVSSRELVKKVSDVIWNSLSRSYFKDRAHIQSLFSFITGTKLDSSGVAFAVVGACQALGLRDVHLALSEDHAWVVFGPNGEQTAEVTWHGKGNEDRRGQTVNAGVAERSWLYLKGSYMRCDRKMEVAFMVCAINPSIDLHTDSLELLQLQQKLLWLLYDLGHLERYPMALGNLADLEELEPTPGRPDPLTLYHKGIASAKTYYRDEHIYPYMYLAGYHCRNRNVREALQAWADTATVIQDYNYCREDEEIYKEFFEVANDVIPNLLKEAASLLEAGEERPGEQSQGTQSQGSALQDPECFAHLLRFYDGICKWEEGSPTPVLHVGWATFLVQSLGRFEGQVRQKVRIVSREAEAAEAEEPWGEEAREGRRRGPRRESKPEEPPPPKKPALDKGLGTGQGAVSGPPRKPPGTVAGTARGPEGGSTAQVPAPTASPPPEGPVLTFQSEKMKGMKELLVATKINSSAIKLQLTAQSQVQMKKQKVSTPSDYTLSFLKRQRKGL

Compound	Potency	FP activity change, negative = inhibition
Brc1ccc(/C=C/C=N/Nc2nc3ccccc3s2)cc1	inconclusive: 1 µM [quencher, side channel, full curve]	–
Cc1ccc2nc(Nc3ccccc3O)nc(-c3ccccc3)c2c1	inconclusive: 14.1 µM [quencher, side channel, partial curve]	–
Cc1ccc(N2C(=O)C(CC(=O)Nc3cccc(F)c3)N(C3CC3)C2=O)cc1 (stereo not given)	inconclusive: 28.2 µM [quencher, side channel, single point]	–
N#Cc1c(-c2c(Cl)cccc2Cl)noc1/C=C/Nc1ccc(C(=O)O)cc1	inconclusive: 17.8 µM [quencher, side channel, partial curve]	–
O=C(CNc1cccc(C(F)(F)F)c1)N/N=C/c1cn(-c2ccccc2)nc1-c1ccccc1	inconclusive: 39.8 µM [inhibitor, single point]	–
CSc1cccc(NC(=S)N(C(C)C)C(C)c2ccccn2)c1 (stereo not given)	inconclusive: 15.8 µM [quencher, side channel, partial curve]	–
CC(NC(=O)c1ccc(Cl)cc1Cl)C(c1ccccc1)N1CCOCC1 (stereo not given)	inconclusive: 20 µM [fluorescent, side channel, single point]	–
COCc1ccc(C(=O)N2CCCC(Nc3ccc(C(C)C)cc3)C2)s1 (stereo not given)	inconclusive: 3.16 µM [inhibitor, single point]	–
COc1ccccc1Cn1c(=S)[nH]c2cc(C(=O)NCc3cccnc3)ccc2c1=O	inconclusive: 7.08 µM [quencher, side channel, single point]	–
O=C(c1ccc(CS(=O)Cc2ccc(Cl)cc2)o1)N1CCN(c2ccccc2F)CC1 (stereo not given)	inconclusive: 20 µM [inhibitor, partial curve]	–
C=CCc1cccc(/C=N/NC(=O)CCCNc2ccc(C)cc2)c1O	inconclusive: 39.8 µM [quencher, side channel, single point]	–
CCc1ccc(NC(=O)CN2C(=O)CC(C)S(=O)(=O)c3ccccc32)cc1 (stereo not given)	inconclusive: 39.8 µM [quencher, side channel, single point]	–
Cc1ccc(C)c(N2CCN(CCCNC(=O)Cn3cc4c(n3)CCCCC4)CC2)c1	inconclusive: 8.91 µM [fluorescent, side channel, full curve]	–
C/C(=N\NC(=O)c1nnn(-c2nonc2N)c1CN(C)c1ccccc1)c1ccc(O)cc1	inconclusive: 35.5 µM [quencher, side channel, single point]	–
COc1ccc(-c2csc(N(C)C(=O)c3cccs3)n2)cc1	inconclusive: 28.2 µM [inhibitor, single point]	–
Cc1cc(C)c(S(=O)(=O)/N=C2/C=C(SCC(=O)O)C(=O)c3ccccc32)cc1C	inconclusive: 22.4 µM [quencher, side channel, partial curve]	–
CC1CCCCN1CCNC(=O)c1ccc2c(c1)N(Cc1ccccc1F)C(=O)c1ccccc1S2=O (stereo not given)	inconclusive: 12.6 µM [inhibitor, partial curve]	–
CCOC(=O)c1c(NC(=O)C2CCCO2)sc(C(N)=O)c1C (stereo not given)	–	inactive: 16.5%
C=CCN(CC=C)S(=O)(=O)c1ccc(NC(=S)NC(=O)/C=C/c2ccccc2)cc1	inconclusive: 12.6 µM [inhibitor, partial curve]	–
COc1ccc(CNC(=O)c2ccc(C(C)(C)C)cc2)cc1	inconclusive: 31.6 µM [fluorescent, side channel, single point]	–
Cc1ccc(C(=O)N2CCN(Cc3nc4sc5c(c4c(=O)[nH]3)CCCC5)CC2)cc1	inconclusive: 1.78 µM [fluorescent, side channel, partial curve]	–
C[n+]1c(/C=C/c2ccc3c(c2)OCO3)ccc2ccccc21	–	inactive: -3.33%
CN1CCc2c(c3c(n2C)CCN(C)[C@H]3c2ccccc2F)[C@@H]1c1ccccc1F	inconclusive: 25.1 µM [inhibitor, single point]	–
O=C(c1ccc(S(=O)(=O)N2CCCC2)cc1)N1CCN(S(=O)(=O)c2cccc(F)c2)CC1	inconclusive: 28.2 µM [fluorescent, side channel, partial curve]	–
Cc1ccc(S(=O)(=O)Nc2cc(S(=O)(=O)c3ccc(C)cc3)c(O)c3cccnc23)cc1	inconclusive: 11.2 µM [quencher, side channel, partial curve]	–
COCCNCC(=O)Nc1ccccc1Sc1ccccc1	inconclusive: 17.8 µM [inhibitor, single point]	–
O=C(N/N=C/c1cn(-c2cccs2)nc1-c1ccccc1)c1ccccc1Br	inconclusive: 28.2 µM [inhibitor, single point]	–
CSc1nnc(-c2ccccc2N=Cc2c(C)[nH]n(-c3ccc4ccccc4c3)c2=O)c(=O)[nH]1	inconclusive: 15.8 µM [quencher, side channel, partial curve]	–

Compound	Potency	FP activity change, negative = inhibition
CC(=O)N1CCN(c2ccc(NCc3ccc4c(c3)OCO4)cc2)CC1	inconclusive: 20 µM [inhibitor, partial curve, poor fit]	–
Cc1ccccc1C(=O)Nc1nnc(S(=O)(=O)N(C)Cc2ccco2)s1	inconclusive: 39.8 µM [quencher, side channel, single point]	–
NC(=O)c1ccc(NC(=O)COC(=O)c2c3c(nc4ccccc24)/C(=C\c2cccs2)CCC3)cc1	inconclusive: 8.91 µM [quencher, side channel, partial curve]	–
O=[N+]([O-])c1ccc(NCCCNS(=O)(=O)c2ccc(Cl)cc2)c(Cl)c1	inconclusive: 31.6 µM [quencher, side channel, partial curve]	–
CC1(C)Oc2ccc3ccc(=O)oc3c2-c2cnoc21	–	inactive: 2.76%
COc1cccc(NC(=O)c2oc3ccccc3c2NC(=O)C2CC2)c1	inconclusive: 28.2 µM [quencher, side channel, single point]	–
O=C(N/C=C/c1ccco1)OCc1ccccc1	inconclusive: 20 µM [quencher, side channel, partial curve]	–
O=S1(=O)CC/C(=N\Nc2ccc(F)cc2)c2ccsc21	inconclusive: 28.2 µM [quencher, side channel, partial curve]	–
Oc1ccc(C2N=C(c3ccccc3)NC(c3ccccc3)=N2)cc1	inconclusive: 39.8 µM [quencher, side channel, single point]	–
COc1cc(SC)ccc1C(=O)Nc1ccccc1C#N	inconclusive: 39.8 µM [inhibitor, single point]	–
COc1cc(NC(=O)COC(=O)CSc2ccc3ccccc3c2)c(C)cc1[N+](=O)[O-]	inconclusive: 28.2 µM [quencher, side channel, partial curve]	–
CC1=NN(C(N)=S)C(=O)C1N=Nc1cccc(Cl)c1C (stereo not given)	inconclusive: 11.2 µM [quencher, side channel, partial curve]	–
N[C@@H](Cc1c[nH]c2ccccc12)C(=O)O	inconclusive: 7.08 µM [inhibitor, single point]	–
c1ccc(Nc2ncnc3sc4c(c23)CCC4)cc1	inconclusive: 2.51 µM [inhibitor, single point]	–
O=C(CCCSc1ccccc1)Nc1nc(-c2ccco2)c(-c2ccco2)s1	inconclusive: 10 µM [quencher, side channel, partial curve]	–
Cc1ccc(S(=O)(=O)N2CCC(C(=O)N3CCC[C@H]3C(=O)NC3CCS(=O)(=O)C3)CC2)cc1 (stereo not given in full)	inconclusive: 7.08 µM [inhibitor, full curve, poor fit]	–
CCCCOc1ccc(Br)cc1CSC(=N)N	inconclusive: 39.8 µM [fluorescent, side channel, single point]	–
COc1ccc(OC)c(/C=C2/Sc3ccccc3C2=O)c1	inconclusive: 10 µM [quencher, side channel, partial curve]	–
COc1ccc(N(Cc2ccccc2)S(=O)(=O)c2cc(C(=O)O)ccc2Cl)cc1	inconclusive: 31.6 µM [quencher, side channel, single point]	–
CC1CCCCN1C(=O)C1CCN(c2nc(-c3ccccc3)nc3c2CCC3)CC1 (stereo not given)	inconclusive: 14.1 µM [fluorescent, side channel, partial curve]	–
COc1ccc(Cl)cc1NC(=O)CSc1nc(NS(=O)(=O)c2ccc(C)cc2)cc(=O)[nH]1	inconclusive: 14.1 µM [fluorescent, side channel, partial curve]	–
O=C(O)c1ccc2c(=O)n3c(nc2c1)/C(=C/c1ccc(F)cc1)CC3	inconclusive: 12.6 µM [inhibitor, partial curve]	–
O=C(N/N=C/c1ccc(F)cc1)c1cc(-c2ccco2)nc2ccccc12	inconclusive: 8.91 µM [quencher, side channel, partial curve]	–
Cc1cc2c(cc1S(=O)(=O)N1CCCC1)n(C)c(=O)c(=O)n2C	–	inactive: 10.2%
COc1cc(-c2cc(C(=O)NN3CCN(C)CC3)c3ccccc3n2)cc(OC)c1OC	inconclusive: 17.8 µM [inhibitor, partial curve, poor fit]	–
COc1cc(/C=N\NC(=O)c2ccc(-c3ccccc3)cc2)ccc1OCC(N)=O	inconclusive: 35.5 µM [fluorescent, side channel, single point]	–
CCC(C)(C(=O)NC1CCCCC1)N(Cc1ccco1)C(=O)Cc1cccs1 (stereo not given)	inconclusive: 3.16 µM [inhibitor, full curve]	–
